# In the supplement of paper PMC8183993:
# “And” between values parts separate entries of the source, which are not always exact repeats. Identical values can stand only once. Counter-ions that a name gives are not always drawn. ± gives the standard deviation of the averaged measurements. In all, about 3,200 compounds were measured (“nuclei count (viability) relative to DMSO”: median about 99, lowest 2% from about 16 on). This is one part of the list.
# Tested on: U2OS
# Assay: nuclei count (viability) relative to DMSO (% of DMSO); higher = more viable cells
# Settings: 10 µM; 24 h
# Method: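 Primary image-based screen in U2OS cells: compounds at 10 uM for 24 h, then a 1 h o-propargyl-puromycin (OPP) pulse, click labelling, and high-throughput microscopy. Mean cytoplasmic OPP intensity and nuclei count were normalised to DMSO wells within each plate (DMSO = 100) and averaged over triplicate plates.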
row,SMILES,nuclei count
1,O=[N+]([O-])c1ccc(Oc2ccc(Br)cc2)c(C(O)P(=O)(O)O)c1 (stereo not given),106
2,Cc1c(-c2ccccc2)oc2c(C(=O)OCCN3CCCCC3)cccc2c1=O [Flavoxate hydrochloride],118
3,Cn1cnc2c1c(=O)[nH]c(=O)n2C [Theobromine],106
4,CC1=NN(c2ccccc2)C(=O)C1,99.1 ± 8.2
5,CCN(CC)CCNC(=O)c1cc(Cl)c(N)cc1OC [Metoclopramide monohydrochloride],103
6,CCOc1ccc2ccccc2c1C(=O)N[C@@H]1C(=O)N2[C@@H]1SC(C)(C)[C@@H]2C(=O)O [Nafcillin sodium salt monohydrate],112
7,CN(C)C/C=C(/c1ccc(Br)cc1)c1cccnc1 [Zimelidine dihydrochloride],104
8,CN(C)C/C=C(/c1ccc(Br)cc1)c1cccnc1 [Zimelidine dihydrochloride monohydrate],105
9,CC(C)(CO)C(O)C(=O)NCCCO (stereo not given) [Panthenol (D)],105
10,CCN(CC)CCOC(=O)c1cc(Cl)c(N)cc1OC [SDZ 205-557 hydrochloride],104
11,C=C1/C(=C\C=C2/CCC[C@]3(C)[C@@H]([C@H](C)CCCC(C)C)CC[C@@H]23)C[C@@H](O)C[C@@H]1O [Alfacalcidol],97.2
12,Cc1ccc2c(c1)c1c3n2CCNC3CCC1 (stereo not given) [Pirlindole mesylate],106 ± 1.8
13,CC(=O)N[C@@H](Cc1c[nH]c2ccccc12)C(=O)OCc1cc(C(F)(F)F)cc(C(F)(F)F)c1,114
14,CO[C@H]1/C=C\C=C(/C)C(=O)NC2=CC(=O)C(NCCN(C)C)=C(C[C@@H](C)C[C@H](OC)[C@H](O)[C@@H](C)/C=C(\C)[C@@H]1OC(N)=O)C2=O [17-DMAG HCl (Alvespimycin)],35.6
15,CCC[C@@H]1C[C@@H](C(=O)N[C@@H]([C@H]2O[C@H](SC)[C@H](O)[C@@H](O)[C@H]2O)[C@H](C)Cl)N(C)C1 [Clindamycin hydrochloride],104
16,CCC[C@@H]1C[C@@H](C(=O)N[C@@H]([C@H]2O[C@H](SC)[C@H](O)[C@@H](O)[C@H]2O)[C@H](C)Cl)N(C)C1 [Clindamycin HCl (Dalacin)],97.5
17,O=C(N[C@H](CO)[C@H](O)c1ccc([N+](=O)[O-])cc1)C(Cl)Cl [Chloramphenicol],108
18,CN(C)CCC=C1c2ccccc2COc2ccccc21 [Doxepin hydrochloride],96.1 ± 1
19,CN1CCC[C@@H]1Cc1c[nH]c2ccc(CCS(=O)(=O)c3ccccc3)cc12 [Eletriptan hydrobromide],96.2
20,CC(C)[N+](C)(CCOC(=O)C1c2ccccc2Oc2ccccc21)C(C)C [Propantheline bromide],103
21,COc1cc2c(Oc3ccc(NC(=O)C4(C(=O)Nc5ccc(F)cc5)CC4)cc3F)ccnc2cc1OCCCN1CCOCC1,12
22,CC1=CC(=O)C(C(C)C)=CC1=O [Thymoquinone],103
23,O=C(/C=C/c1ccc(O)cc1)CC(=O)/C=C/c1ccc(O)cc1 [bis-demethoxycurcumin],93.2
24,C[S+]([O-])c1ccc(-c2nc(-c3ccc(F)cc3)c(-c3ccncc3)[nH]2)cc1 (stereo not given),96.8 and 103
25,COc1ccccc1Oc1c(NS(=O)(=O)c2ccc(C(C)(C)C)cc2)nc(-c2ncccn2)nc1OCCO [Bosentan],112

row,SMILES,nuclei count
1,Nc1ccccc1S(N)(=O)=O [2-Aminobenzenesulfonamide],109
2,OC[C@H]1O[C@@H](n2cnc3c(NC4CCCC4)ncnc32)[C@H](O)[C@@H]1O [N6-Cyclopentyladenosine],103
3,CCOc1nc2cccc(C(=O)OCc3oc(=O)oc3C)c2n1Cc1ccc(-c2ccccc2-c2noc(=O)[nH]2)cc1 [Azilsartan Medoxomil (TAK-491)],101
4,O=C(O)c1cn(C2CC2)c2cc(N3CCNCC3)c(F)cc2c1=O [Ciprofloxacin hydrochloride monohydrate],102
5,CC1(C)CCC(C)(C)c2cc(C3(c4ccc(C(=O)O)cc4)OCCO3)ccc21,94.2
6,COc1ccc(NS(=O)(=O)c2sc3ccc(Cl)cc3c2C)cc1N1CCNCC1,98.3
7,COc1ccc(-c2cc(=S)ss2)cc1 [Anethole trithione],112
8,COc1ccc(-c2cc(=S)ss2)cc1 [Anethole-trithione],109
9,C#CCN[C@@H]1CCc2ccccc21 [Rasagiline mesylate],103
10,C1COC(NC(C2CC2)C2CC2)=N1 [Rilmenidine hemifumarate],103
11,C1COC(NC(C2CC2)C2CC2)=N1 [Rilmenidine],93.6
12,COc1cc(OC2CCN(C)CC2)ccc1Nc1ncc2c(n1)n(C1CCCC1)c(=O)n2C,87.4
13,N#C/C(=C\c1ccc(O)c(O)c1)C(=O)OCCc1cccs1,99
14,CC(NC(=O)c1ccccc1/N=C/c1c(O)ccc2ccccc12)c1ccccc1 (stereo not given) [Sirtinol],98.8 ± 2.1
15,Cc1cccc(-c2[nH]c(C(C)(C)C)nc2-c2ccc3c(c2)OCO3)n1,99
16,NC1CCN(c2cccc(Cl)n2)CC1,103
17,CC(C)(OCc1nn(Cc2ccccc2)c2ccccc12)C(=O)O [Bindarit],103
18,Cc1ccc(S(=O)(=O)N[C@@H](Cc2ccccc2)C(=O)CCl)cc1,77.2
19,COc1cc(C(=O)NCc2ccc(OCCN(C)C)cc2)cc(OC)c1OC [Trimethobenzamide hydrochloride],94.5
20,CCCN1CCCC[C@H]1C(=O)Nc1c(C)cccc1C [Ropivacaine HCl],103
21,CC(C)NCC(O)COc1ccc(CCOCC2CC2)cc1 (stereo not given) [Betaxolol hydrochloride],99.5 ± 6.9
22,Cc1c(C(=O)NN2CCCCC2)nn(-c2ccc(Cl)cc2Cl)c1-c1ccc(I)cc1,92.9
23,CCc1nc(N)nc(N)c1-c1ccc(Cl)cc1 [Pyrimethamine],88.8
24,CC(=O)[C@@]1(O)CC[C@H]2[C@@H]3C[C@H](C)C4=CC(=O)C=C[C@]4(C)[C@@]3(F)[C@@H](O)C[C@@]21C [Fluorometholone],87.7
25,CCN(C(=O)c1c(O)c2c(Cl)cccc2n(C)c1=O)c1ccccc1,99.5
